# The list shows a part of the results.
# Experiments:
# HSkMC = human skeletal muscle cells; assay: cytotoxicity call (relative viability < 0.9); details: 10 µM
# HepG2 = assay: cytotoxicity call (relative viability < 0.9); details: 10 µM
# S. aureus RN4220 = assay: growth inhibition call (relative growth <= 0.2); details: 50 µM
Compound,cytotoxicity call (HSkMC),cytotoxicity call (HepG2),growth inhibition call (S. aureus RN4220)
C[C@H]1CN([C@@H](C)CO)C(=O)c2cc(NS(C)(=O)=O)ccc2O[C@H]1CN(C)C(=O)Nc1ccc2c(c1)OCO2,inactive,inactive,inactive
CC(C)c1c(O)ccc2c1CCC1C(C)(C=O)CCCC21C (centres undefined),inactive,inactive,inactive
C[C@@H]1CN([C@H](C)CO)C(=O)c2cc(NC(=O)c3ccncc3)ccc2O[C@@H]1CN(C)S(=O)(=O)c1cn(C)cn1,inactive,inactive,inactive
C[C@H](CO)N1C[C@H](C)[C@H](CN(C)Cc2ccncc2)Oc2c(NS(=O)(=O)c3ccccc3)cccc2C1=O,inactive,inactive,inactive
COc1cccc(S(=O)(=O)Nc2ccc3c(c2)C(=O)N(C)C[C@@H](OC)[C@H](C)CN(C(=O)Cc2cccnc2)[C@H](C)CO3)c1,inactive,inactive,inactive
Cc1noc(C)c1NC(=O)N(C)C[C@@H]1OCCCC[C@H](C)Oc2ccc(NC(=O)c3ccccc3)cc2C(=O)N([C@H](C)CO)C[C@H]1C,inactive,inactive,inactive
O=C(c1cccnc1)N1C[C@@H]2[C@H](c3ccccc31)[C@H](CO)N2C(=O)CN1CCOCC1,inactive,inactive,inactive
O=C(C[C@@H]1C=C[C@@H](NC(=O)CN2CCOCC2)[C@H](CO)O1)NCc1cccc(F)c1,inactive,inactive,inactive
Cc1ccc(S(=O)(=O)N(C)C[C@@H]2Oc3ccc(NS(=O)(=O)c4ccc(F)cc4)cc3CC(=O)N([C@@H](C)CO)C[C@@H]2C)cc1,inactive,inactive,inactive
CC(C)NC(=O)N(C)C[C@@H]1Oc2c(NS(=O)(=O)c3cccs3)cccc2C(=O)N([C@H](C)CO)C[C@@H]1C,inactive,inactive,inactive
Cc1noc(C)c1S(=O)(=O)N(C)C[C@H]1Oc2ccc(NS(C)(=O)=O)cc2C(=O)N([C@H](C)CO)C[C@H]1C,inactive,inactive,inactive
CCCN(C)C[C@H]1OCCCC[C@@H](C)Oc2ccc(NC(=O)Nc3ccc(OC)cc3)cc2C(=O)N([C@H](C)CO)C[C@@H]1C,inactive,inactive,inactive
CO[C@@H]1CN(C)C(=O)c2ccc(NC(=O)C3CC3)cc2OC[C@@H](C)N(C(=O)Cc2ccccn2)C[C@H]1C,inactive,inactive,inactive
C[C@@H]1CN([C@H](C)CO)S(=O)(=O)c2ccc(Br)cc2O[C@H]1CN(C)S(=O)(=O)c1ccc(F)cc1,inactive,inactive,inactive
C[C@H]1CN([C@@H](C)CO)C(=O)Cc2cc(NC(=O)CCC(F)(F)F)ccc2O[C@@H]1CN(C)C(=O)Nc1ccc(C(F)(F)F)cc1,inactive,inactive,inactive
C[C@H](CO)N1C[C@H](C)[C@H](CN(C)Cc2ccc(Oc3ccccc3)cc2)Oc2c(NC(=O)Nc3ccccc3)cccc2C1=O,inactive,inactive,inactive
Cc1noc(C)c1NC(=O)N(C)C[C@@H]1OCCCC[C@@H](C)Oc2ccc(NC(=O)NC3CCCCC3)cc2C(=O)N([C@@H](C)CO)C[C@H]1C,inactive,inactive,inactive
CO[C@@H]1CN(C)C(=O)c2ccc(NC(=O)Nc3cccc(F)c3)cc2OC[C@@H](C)N(C(=O)Nc2c(C)noc2C)C[C@@H]1C,inactive,inactive,inactive
CCN1C(C)(C)CC(Oc2ccc(C(=O)Nc3ccc(NC(=O)Nc4cc(C(C)(C)C)on4)cc3)nc2)CC1(C)C,active,active,inactive
C[C@@H]1CN([C@H](C)CO)C(=O)c2cc(NC(=O)Nc3ccccc3)ccc2O[C@@H](C)CCCCO[C@@H]1CN(C)Cc1ccc(Cl)c(Cl)c1,inactive,active,inactive

Compound,cytotoxicity call (HSkMC),cytotoxicity call (HepG2),growth inhibition call (S. aureus RN4220)
NCC[C@H]1CC[C@H](NC(=O)C2CC2)[C@@H](CO)O1,inactive,inactive,inactive
C[C@@H]1CN([C@H](C)CO)S(=O)(=O)c2ccc(-c3cccc(C(=O)N(C)C)c3)cc2O[C@@H]1CN(C)C(=O)Cc1ccccn1,inactive,inactive,inactive
CC(C)Cc1ccc(C(C)C(=O)O)cc1 (centres undefined),inactive,inactive,inactive
COC(=O)CNc1nc(OC)nc(N(C)C)n1,inactive,inactive,inactive
CC(C)NC(=O)Nc1ccc2c(c1)CC(=O)N([C@H](C)CO)C[C@@H](C)[C@H](CN(C)S(=O)(=O)c1cccs1)O2,inactive,inactive,inactive
C[C@@H]1CCCCO[C@@H](CN(C)C(=O)Nc2ccc(F)cc2)[C@@H](C)CN([C@H](C)CO)C(=O)c2cc(NC(=O)c3ccccc3)ccc2O1,inactive,inactive,inactive
C[C@@H]1CN([C@H](C)CO)S(=O)(=O)c2ccc(C#CC3CCCC3)cc2O[C@@H]1CN(C)Cc1cncnc1,inactive,inactive,inactive
C[C@@H]1CN([C@@H](C)CO)S(=O)(=O)c2ccc(-c3cncnc3)cc2O[C@@H]1CN(C)C(=O)Cc1ccncc1,inactive,inactive,inactive
C[C@@H]1CN([C@@H](C)CO)C(=O)c2cc(NC(=O)Nc3ccccc3)ccc2O[C@@H](C)CCCCO[C@@H]1CN(C)C(=O)Nc1ccccc1,inactive,inactive,inactive
CC(=O)[C@@H](OC(=O)CS(C)(=O)=O)C(=O)NCc1ccccc1,inactive,inactive,inactive
C[C@H](CO)N1C[C@H](C)[C@H](CN(C)C(=O)Nc2ccccc2)Oc2c(NC(=O)C3CCOCC3)cccc2C1=O,inactive,inactive,inactive
C[C@@H]1CN([C@@H](C)CO)C(=O)Cc2cc(NS(C)(=O)=O)ccc2O[C@H]1CN(C)S(=O)(=O)c1ccc(Cl)cc1,inactive,inactive,inactive
O=C(CCCN1CCN(c2ccccn2)CC1)c1ccc(F)cc1,inactive,inactive,inactive
C[C@@H]1CN([C@H](C)CO)C(=O)c2cc(/C=C/c3ccccc3)cnc2O[C@@H]1CN(C)C(=O)c1cnccn1,inactive,inactive,inactive
C[C@H](CO)N1C[C@H](C)[C@H](CN(C)S(=O)(=O)c2ccccc2)Oc2ccc(NC(=O)Cn3cnnn3)cc2C1=O,inactive,inactive,inactive
C[C@@H]1CN([C@H](C)CO)C(=O)c2cc(C#CC3(O)CCCC3)cnc2O[C@@H]1CN(C)C(=O)Cc1cccnc1,inactive,inactive,inactive
COc1ccc(S(=O)(=O)N(C)C[C@@H]2OCCCC[C@H](C)Oc3ccc(NC(=O)Nc4ccc(F)cc4)cc3C(=O)N([C@H](C)CO)C[C@@H]2C)cc1,inactive,inactive,inactive
Cc1csc2c(N3CCC(Cn4cc(C(C)(C)N)nn4)CC3)ncnc12,inactive,inactive,inactive
C[C@@H]1CCCCO[C@@H](CN(C)C(=O)Cc2ccccc2)[C@@H](C)CN([C@@H](C)CO)C(=O)c2cc(NC(=O)Cc3ccccc3)ccc2O1,inactive,inactive,inactive
C[C@@H]1CN([C@@H](C)CO)C(=O)Cc2cc(NC(=O)Nc3ccc4c(c3)OCO4)ccc2O[C@@H]1CN(C)S(C)(=O)=O,inactive,inactive,inactive

Compound,cytotoxicity call (HSkMC),cytotoxicity call (HepG2),growth inhibition call (S. aureus RN4220)
C[C@@H]1CN([C@H](C)CO)C(=O)c2cc(NC(=O)Cc3cn(C)c4ccccc34)ccc2O[C@@H]1CN(C)S(C)(=O)=O,inactive,inactive,inactive
CCCN1C[C@@H](C)[C@H](OC)CN(C)C(=O)c2ccc(NS(=O)(=O)c3cn(C)cn3)cc2OC[C@@H]1C,inactive,inactive,inactive
C[C@@H]1CN([C@H](C)CO)C(=O)c2cccc(NC(=O)C3CCOCC3)c2O[C@H]1CN(C)Cc1ccc2c(c1)OCO2,inactive,inactive,inactive
C=CC[C@H](CC(=O)NCCO)C(=O)N[C@@H](COC(=O)[C@H](CC=C)CC(=O)OC(C)(C)C)Cc1c[nH]c2ccccc12,inactive,inactive,inactive
NC(=O)CSc1ccccn1,inactive,inactive,inactive
Cc1noc(C)c1NC(=O)N(C)C[C@@H]1Oc2ccc(NC(=O)Cn3cnnn3)cc2CC(=O)N([C@@H](C)CO)C[C@@H]1C,inactive,inactive,inactive
C[C@H]1CCCCO[C@H](CN(C)S(=O)(=O)c2ccc(Cl)cc2)[C@@H](C)CN([C@@H](C)CO)C(=O)c2cc(NC(=O)NC3CCCCC3)ccc2O1,inactive,inactive,inactive
O=C(O)CCC(=O)N1CC(=O)Nc2ccccc21,inactive,inactive,inactive
CC1CCc2c(N3CCC(O)CC3)c(F)cc3c(=O)c(C(=O)O)cn1c23 (centres undefined),inactive,inactive,inactive
CC[C@@H](O[Si](C#C[Si](C(C)C)(C(C)C)C(C)C)(C(C)C)C(C)C)c1cn([C@H](C)c2ccccc2)nn1,inactive,inactive,inactive
C[C@@H]1CCCCO[C@H](CN(C)S(=O)(=O)c2ccc(Cl)cc2)[C@@H](C)CN([C@@H](C)CO)C(=O)c2cc(NC(=O)Nc3ccccc3)ccc2O1,inactive,inactive,inactive
C[C@@H]1CN([C@H](C)CO)C(=O)c2cc(NS(=O)(=O)c3cn(C)cn3)ccc2O[C@@H]1CN(C)C(=O)Nc1ccc2c(c1)OCO2,inactive,inactive,inactive
COc1ccc(-c2cnc3c(c2)C(=O)N([C@H](C)CO)C[C@H](C)[C@H](CN(C)S(=O)(=O)c2cccc(F)c2)O3)cc1,inactive,inactive,inactive
CN(C)/C=C/C(=S)c1cccs1,inactive,inactive,inactive
O=C1OCC=C[C@H]2O[C@@]34C=CCN(Cn5nnc6ccccc65)C(=O)[C@H]3N(CCCCCCO)C(=O)[C@@H]4[C@@H]12,inactive,inactive,inactive
COC(=O)c1cc(S(C)(=O)=O)ccc1OC,inactive,inactive,inactive
O=c1c(O)c(-c2ccccc2)oc2cc(O)ccc12,inactive,inactive,inactive
Nc1ncnc2c1ncn2[C@@H]1C=C[C@H](CO)O1,inactive,inactive,inactive
